Test results reported in PubChem BioAssay AID887 (National Center for Advancing Translational Sciences (NCATS), 2007).
The campaign covered roughly 74,000 compounds. About 1,100 (1.5%) were called active. Inconclusive means that the source gave no clear call. Such entries were picked first, then a sample of the others. The call rests on the fitted dose curve; in most records, active means well fitted inhibition curve with a large enough effect; inconclusive means small, poorly fitted or top-dose-only effect; inactive means no such curve, though single readings can be large or run the other way. No potency is given beside an inconclusive call; the fits are too rough.

target: Polyunsaturated fatty acid lipoxygenase ALOX15 (Homo sapiens) (UniProt P16050); test: qHTS Assay for Inhibitors of 15-hLO (15-human lipoxygenase); conditions: purified 15hLO-1, xylenol orange hydroperoxide absorbance; activity change, negative = inhibition: at 57.1 µM (top of the series) unless noted; further: nearly all actives have a fitted effect of over 55% in size
How it was run: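 Hydroperoxide formed from arachidonic acid (50 uM) by purified human 15hLO-1 (40 nM) oxidizes ferrous iron, and the ferric-xylenol orange complex is read at 573 versus 405 nm. Compounds were preincubated 15 min; reaction ran 6 min at room temperature.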
On the % scale 0 is the no-effect control and ±100 the full control effect; potency means the concentration at half of the fitted maximal effect; tags describe the fitted curve by direction and shape.

Chain of UniProt P16050 (P16050 whole entry, looked up): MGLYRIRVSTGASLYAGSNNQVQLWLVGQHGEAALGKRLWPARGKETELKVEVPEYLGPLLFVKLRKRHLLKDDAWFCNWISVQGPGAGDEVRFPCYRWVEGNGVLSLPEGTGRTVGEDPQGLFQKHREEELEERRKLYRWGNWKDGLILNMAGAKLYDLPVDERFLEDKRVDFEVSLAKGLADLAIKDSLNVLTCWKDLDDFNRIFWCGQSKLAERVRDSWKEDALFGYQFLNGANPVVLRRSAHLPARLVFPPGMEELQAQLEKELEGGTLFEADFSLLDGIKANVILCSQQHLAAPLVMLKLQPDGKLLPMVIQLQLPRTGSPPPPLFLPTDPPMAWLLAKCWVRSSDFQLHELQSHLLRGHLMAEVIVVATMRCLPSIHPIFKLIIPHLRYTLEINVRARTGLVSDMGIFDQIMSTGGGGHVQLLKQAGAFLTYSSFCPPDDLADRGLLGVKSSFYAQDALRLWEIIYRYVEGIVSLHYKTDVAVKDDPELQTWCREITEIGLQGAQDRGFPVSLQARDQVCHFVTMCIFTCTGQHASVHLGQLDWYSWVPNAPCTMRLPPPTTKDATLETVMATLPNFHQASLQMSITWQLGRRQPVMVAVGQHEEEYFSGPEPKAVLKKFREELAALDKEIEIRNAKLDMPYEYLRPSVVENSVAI

Structure (SMILES) | Potency | activity change, negative = inhibition
COc1cccc(-c2ccc3ncnc(N4CCNCC4)c3c2)c1 | inactive | –
Cc1ccc(C(=O)CSc2nnc(-c3ccco3)n2Cc2ccccc2)cc1 | inconclusive [inhibitor, partial curve] | –
Cc1cc(/C=N/n2cnnc2)c(C)n1-c1ccc(OCc2ccccc2F)cc1 | – | inactive: 5.32% [at 11.4 µM]
c1ccc(-c2nn3c(Cn4cnc5ccccc54)nnc3s2)cc1 | inconclusive [inhibitor, full curve, poor fit] | –
O=C1[C@H]2O[C@@H]2[C@@H](O)[C@H]2[C@H]1CCn1c(=O)n(Cc3cc4c(cc3Cl)OCO4)c(=O)n12 | – | inactive: 3.8% [at 11.4 µM]
COCCCn1c(CCC(=O)O)ccc1-c1ccc(F)cc1 | active: 15.8 µM | –
Clc1ccccc1OCCn1ccnc1 | inconclusive [inhibitor, single point] | –
CCOC(=O)c1sc(=S)n(-c2cc(F)ccc2F)c1N | inconclusive [inhibitor, single point] | –
CN1c2ccccc2C(C)(C)C12C=Cc1cc(O)ccc1O2 (configuration not stated) | inconclusive [inhibitor, single point] | –
CC[N+](CC)(CC)CC(=O)Nc1c(C)cccc1C | inconclusive [inhibitor, single point] | –
Cc1ccc(-n2c(SCC(=O)OC(C)C)nnc2-c2ccncc2)cc1 | inconclusive [inhibitor, single point] | –
COc1ccc2[nH]cc(CCNc3cc(-c4c(C)noc4C)ncn3)c2c1 | inconclusive [inhibitor, partial curve] | –
COc1ccc(CCC(C(O)C(F)(F)F)S(=O)c2ccccc2)cc1 (configuration not stated) | inconclusive [inhibitor, partial curve] | –
COc1cccc(-c2nc(NC3CCNCC3)c3ccccc3n2)c1 | inconclusive [inhibitor, single point] | –
O=C(Nc1ccc(Nc2ccc3c(c2)C(=O)c2ccccc2C3=O)c2c1C(=O)c1ccccc1C2=O)c1ccccc1 | – | inactive: -16.4% [at 11.4 µM]
COCCN1C(=O)c2ccccc2C(C(=O)NCCCN2CCCC2)C1c1c[nH]c2ccccc12 (configuration not stated) | inconclusive [inhibitor, partial curve] | –
CCCc1ccc(Oc2cn[nH]c2-c2ccc(O)c(C)c2O)cc1 | inconclusive [inhibitor, partial curve] | –
O=C(Nc1cccnc1)C1(F)C(F)(F)C(F)(F)C(F)(F)C(F)(F)C1(F)F | inconclusive [inhibitor, single point] | –
Cc1ccc(-c2nnc(SCC(=O)N3CC(C)CC(C)C3)o2)cc1C (configuration not stated) | inactive | –
COc1ccc(OC)c(C(=O)CSc2nnc(-c3cccs3)n2C)c1 | inconclusive [inhibitor, partial curve] | –
CC/C(=C(/CC)c1ccc(O)cc1)c1ccc(O)cc1 | inconclusive [inhibitor, partial curve] | –
COc1ccc2nc3sc(C(=O)NCc4cccs4)c(N)c3cc2c1 | active: 20 µM | –
Cc1ccccc1C1=NC(c2ccc(F)cc2F)ON1 (configuration not stated) | inconclusive [inhibitor, single point] | –

Structure (SMILES) | Potency | activity change, negative = inhibition
CCOC(=O)c1c(N)sc2c1CCC(C)C2 (configuration not stated) | inconclusive [inhibitor, single point] | –
CC(C)(Sc1ccc(CCN(CCCCC2CCCCC2)C(=O)NC2CCCCC2)cc1)C(=O)O | inconclusive [inhibitor, single point] | –
CCOC(=O)c1cccc(NC(=O)CSc2nnc(C3CCCCC3)n2CC)c1 | inconclusive [inhibitor, full curve, poor fit] | –
CCOC(=O)CSC1=C(C#N)C(c2ccc(C)cc2)C2=C(CCCC2=O)N1 (configuration not stated) | inconclusive [inhibitor, partial curve] | –
CCC(C)(C)n1nnnc1CN(Cc1cccs1)Cc1cc2cc(OC)ccc2[nH]c1=O | inconclusive [inhibitor, partial curve] | –
COc1ccc(N=c2oc3c(OC)cccc3cc2C(=O)NCc2ccco2)c(OC)c1 | inactive | –
CS(=O)(=O)N1CCC2(CCCN(C(=O)Nc3cccc(F)c3)C2)CC1 | inconclusive [inhibitor, full curve] | –
O=c1[nH]c2cc3c(cc2cc1C(c1nnnn1C1CCCC1)N1CCCc2ccccc21)OCCO3 (configuration not stated) | inconclusive [inhibitor, single point] | –
CCOc1ccc2[nH]c(=O)c(CN(CCO)C(=O)CC)cc2c1 | inconclusive [inhibitor, full curve] | –
COc1ccc2nc(NC(=O)C3CCCN(S(=O)(=O)c4cccc5nonc45)C3)sc2c1 (configuration not stated) | inconclusive [inhibitor, partial curve] | –
CC1=CC2=C(OC1N(C)C)c1cccc3cccc(c13)C2=O (configuration not stated) | active: 7.94 µM | –
Cc1ccc(-c2nc3cnccn3c2Nc2ccc3c(c2)OCCO3)o1 | active: 25.1 µM | –
CCOC(=O)Nc1nnc(-c2cccc(OC)c2)s1 | inactive | –
N=c1oc2c3c4c(cc2cc1C(=O)Nc1ccccc1)CCCN4CCC3 | inconclusive [inhibitor, single point] | –
O=C(O)Cn1nc(-c2ccccc2)c2ccccc2c1=O | inconclusive [inhibitor, single point] | –
COc1ccc(NC(=O)CSc2nnc(-c3ccccc3)n2N)cc1 | inconclusive [inhibitor, single point] | –
C/C(=N/NC1=NCCN1)c1cn(C2=NCCN2)nc1C | – | inactive: 23.4% [at 11.4 µM]
O=C1C(Cl)=C(Nc2ccccc2O)C(=O)N1c1ccccc1 | inconclusive [inhibitor, single point] | –
O=C(NCCCN1CCCCC1)c1ccc2c(=O)n(CCc3ccccc3)c(=O)[nH]c2c1 | inactive | –
CCC(C(=O)NC1CCCC1)N(C(=O)c1snc(C(N)=O)c1N)c1ccc2c(c1)OCCO2 (configuration not stated) | active: 25.1 µM | –
Cc1ccsc1/C=C/C1=NCCCN1C | inactive | –
CCCn1c(=O)[nH]c2nc(-c3ccc(S(=O)(=O)O)cc3)[nH]c2c1=O | inconclusive [inhibitor, single point] | –
O=c1cnc2cnc(Nc3ccccc3)nc2n1Cc1cccs1 | inactive | –

Structure (SMILES) | Potency | activity change, negative = inhibition
Fc1ccc2nc(Nc3nc4c(s3)CCCC4)sc2c1 | inconclusive [inhibitor, single point] | –
Oc1ccc(-c2[nH]ncc2-c2ccc(Cl)cc2)c(O)c1 | inconclusive [inhibitor, partial curve] | –
c1ccc(CN2COc3c(ccc4c5c(ccc34)CN(Cc3ccccc3)CO5)C2)cc1 | – | inactive: 2.15% [at 11.4 µM]
COC(=O)CSc1nc2sc3c(c2c(=O)n1-c1ccccc1)CCN(C)C3 | inconclusive [inhibitor, single point] | –
CC(=O)c1ccccc1OCC(O)CN1CCN(C(c2ccccc2)c2ccccc2)CC1 (configuration not stated) | inconclusive [inhibitor, single point] | –
COc1cc(CNc2ccc3[nH]c(=O)[nH]c3c2)cc(Cl)c1OCC(=O)NC(C)(C)C | inconclusive [inhibitor, single point] | –
c1ccc(-n2ncc3c(NCc4ccco4)ncnc32)cc1 | inconclusive [inhibitor, single point] | –
Cc1ccc2nc(NC(=O)C3CCN(S(=O)(=O)c4cccc5nsnc45)CC3)sc2c1 | inconclusive [inhibitor, single point] | –
O=C(C1CCN(S(=O)(=O)c2ccc3c(c2)OCCO3)CC1)N1CCc2ccccc21 | inconclusive [inhibitor, full curve, poor fit] | –
COC(=O)c1ccc(CSc2nc(C)nc3c2c(=O)n(C)c(=O)n3C)o1 | inactive | –
CCCCCCN(C(=O)CCCCCN1C(=O)NC(c2ccc(-c3ccccc3)cc2)C(C(=O)OCc2ccccc2)=C1C)C(C(=O)NCCCC)c1ccccn1 (configuration not stated) | inconclusive [inhibitor, single point] | –
Cc1c(-c2ccccc2)sc(N)c1C(=O)N1CCOCC1 | inconclusive [inhibitor, single point] | –
Nc1ccc(O)c(-c2nc3ccccc3s2)c1 | inconclusive [inhibitor, single point] | –
O=Cc1ccc(OC2C=CC(C#Cc3ccccc3)OC2CO)cc1 (configuration not stated) | – | inactive: -24.4% [at 11.4 µM]
O=C(Cc1cccs1)NC1C(=O)N2C(C(=O)[O-])=C(C[n+]3ccccc3)CSC12 (configuration not stated) | inconclusive [inhibitor, partial curve] | –
CN(Cc1cnc2nc(N)nc(N)c2n1)c1ccc(C(=O)N[C@@H](CCC(=O)O)C(=O)O)cc1 | inconclusive [inhibitor, partial curve] | –
CC(=O)N1CCC2(CC1)CN(c1ccncc1)C2 | inactive | –
COc1ccc(OC)c(C2CC(=O)N3CN(c4cccc(Cl)c4C)CSC3=C2C#N)c1 (configuration not stated) | inconclusive [inhibitor, partial curve] | –
COC(=O)N1CCC2(CC1)CN(c1cccc(-c3ccccc3)c1)C2 | inactive | –
CC(C)c1nnc(NC(=O)c2cccs2)s1 | inconclusive [inhibitor, single point] | –
CCCCn1c(SCC(=O)Nc2cccc(OC)c2)nc2ccc(N3CCOCC3)cc2c1=O | inconclusive [inhibitor, partial curve] | –
